Assay results taken from a collection of fitness landscapes (doi:10.1016/j.celrep.2020.107928).
The full ranking holds about 81,000 sequences; the median of “one-hybrid fitness for binding parS DNA” is about -0.17, and the highest 2% start at about 0.51. Some of the results follow.

B1: Caulobacter ParB omega fusion; a variant is named by its letters at X, in order, B8GW30 (parent)
chain: MESVVVGEPGMSEGRRGLGRGLSALLGEVDAAPAQAPGEQLGGSREAPIEILQRNPDQPRRTFREEDLEDLSNSIREKGVLQPILVRPSPDTAGEYQIVAGERAWRAAQRAGLKTVPIMVRELDDLAVLEIGIIENVQRADLNVLEEALSYKVLMEKFERTQENIAQTIGKSXSHVANXMRLLXLPDEVQSYLVSGELTAXHARAIAAAADPVALAKQIIEGGLSVRETEALARKAPNLSAGKSKGGRPPRVKDTDTQALESDLSSVLGLDVSIDHRGSTGTLTITYATLEQLDDLCNRLTRGI

Variants of: B1
Experiment: one-hybrid fitness for binding parS DNA (scaled: cognate 1, non-cognate 0); higher = stronger binding
Details: with parS DNA site
Outline: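 Values were rescaled so that cognate is 1 and non-cognate is 0. Each is a fitness, the log change in a variant's read ratio to wild type from Illumina reads of plasmids before and after selection, with three replicate libraries pooled and variants under 10 reads dropped. Selection of the Caulobacter ParB libraries, four specificity codons randomised, used E. coli USO with a HIS3 reporter, site 19 bp from the promoter, on M9-minus-histidine with 0.1 mM IPTG and 5 mM 3-AT for 48 hours at 37°C.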

one-hybrid fitness for binding parS DNA, 0.488:
RKPC

one-hybrid fitness for binding parS DNA, 0.216:
RCIW

one-hybrid fitness for binding parS DNA, 0.432:
RLRN

one-hybrid fitness for binding parS DNA, 0.559:
RFAA

one-hybrid fitness for binding parS DNA, 0.481:
RVHY

one-hybrid fitness for binding parS DNA, 0.834:
RHLT

one-hybrid fitness for binding parS DNA, 0.594:
RGGC

one-hybrid fitness for binding parS DNA, 0.921:
RCMT

one-hybrid fitness for binding parS DNA, 0.939:
RSLC

one-hybrid fitness for binding parS DNA, 0.338:
RWTN

one-hybrid fitness for binding parS DNA, 0.387:
RQPT

one-hybrid fitness for binding parS DNA, ≤ 0.2:
ADKY
AVVM
MVLH
LPVR
PDEH
TYSY
MKKW
QVKA
IVPT
ATSL
PEGG
NGNS
IVEC
HFYT
GGMG
QQQK
ATAI
SPAR
AAVW
QCTM
QTFE
IDPL
GQLW
NATQ
QTAP
LNYG
RCRE
QSTR
DAPC
PRLP
EYFS
YGLY
SIIC
ETSQ
KAPV
YQPP
PMEV
GYSC
PGHR
PATI
TLRS
HRAD
EEST
FQRM
RNPV
ANYT
TYVR
CFLW
PSVS
LPNT
AWTF
KLRI
VLAG
HKTL
PVDC
QPAC
QGKM
DNQG
LTAN
RDLG
KRIT
MASC
TSDD
MADT
VYYG
NHDF
ACPD
SSTA
YDFY
QLKR
QWAN
FGPG
CAVP
ITFT
RAKK
PSQK
TCRP
LWGG
LRFC
VRMP
RTIV
QAHQ
NCLS
NRSE
LAYG
ANSA
KEMS
GLTK
ADRN
QYVE
KMQS
SWNA
ICPS
PFNI
KYRN
MPSS
QWKT
VCQC
ALGI
PLWS
HKTT
DATN
EPCM
RQNE
RAYH
FEIG
RYPM
VRVR
THDI
PAGK
VVWY
SLKL
QCGV
VPPC
VDTE
TMHK
DGTR
SIRR
QFRV
ATPY
LGIW
QKCR
AFTL
SLSR
RARL
EKVL
KCGS
PMHL
HLGS
LETL
FPTC
NTLW
MYND
REVT
RPKL
RQLR
LQEM
ALHR
LQKG
TLAR
KVSV
RVHQ
AYYY
YSGD
NINM
TCRY
DSEM
LFPW
VAMC
RLPM
QYTF
TQLL
GVCN
GASL
GLHC
TLYP
RRNE
RTSL
TSHE
RHAP
YSAN
QNTS
LRAD
MTSP
QMSD
YSRP
SCHR
QMCG
WKIC
ESDN
ISRY
LHHR
KVGG
KDRR
PEHV
PVVN
NLFC
IRFG
QDRV
IAVF
TNRC
LSKF
VDCN
TSQS
TYNL
GQGT
GCTG
TFKS
REDC
AMML
ADPY
LGSG
KMDK
IHYR
IVAT
ALYS
LPIN
LFQC
TTNI
VSAY
LNGT
ISKR
QNHC
TFYL
PRGG
AGTA
FPDS
KSHL
HRKF
VPRF
ATDS
VESK
RHMV
TRKG
SAPV
WTGN
HPSQ
TLKA
VGLS
DPPI
PPST
RSWD
VFVT
YAAN
MYIG
HSLP
FCTR
GMSY
AWEW
TMTY
APIY
QHHW
PGGE
RTLL
APDC
CNPA
QSEG
LHFC
NTDM
QPRI
FPQS
QVKR
EFTS
AFDY
QTSY
PIHG
PGPT
PHVR
RHVR
LIHK
TTTC
CLSS
FAQW
PHVC
QVWR
ILVC
KISS
QIAI
SCMA
IDLM
KTAM
VQIN
QSKQ
LSLW
LVPR
PWTC
GGAG
RMQI
RPDF
STED
EASC
HADT
HGTS
TKKK
VLFY
NLEH
HQNL
REMN
WTNM
KSVR
PTYR
CAAK
GQTY
KKGT
TLVS
LNRW
MVTA
GKCC

one-hybrid fitness for binding parS DNA, 0.46:
RFDA

one-hybrid fitness for binding parS DNA, 0.233:
RQWM

one-hybrid fitness for binding parS DNA, 0.238:
WKHL

one-hybrid fitness for binding parS DNA, 0.66:
RNYT

one-hybrid fitness for binding parS DNA, 0.314:
RVYM

one-hybrid fitness for binding parS DNA, 0.249:
RGQN

one-hybrid fitness for binding parS DNA, 0.627:
RRNA
